Test results: the supplement of paper PMC3334620
The full ranking holds about 33,000 sequences; the median of “E-score (-0.5 to 0.5)” is about -0.041, and the highest 2% start at about 0.37. This is one part of the list.

Each sequence was assayed against T1, Ecm22 (UniProt Q05958) (assay: PBM E-score (8-mer binding enrichment) (E-score (-0.5 to 0.5)); higher = stronger / more preferred TF binding; most listed sequences are background and not binding sites). Settings: protein concentration: 200 nM; construct: GST-full length.
T1 sequence: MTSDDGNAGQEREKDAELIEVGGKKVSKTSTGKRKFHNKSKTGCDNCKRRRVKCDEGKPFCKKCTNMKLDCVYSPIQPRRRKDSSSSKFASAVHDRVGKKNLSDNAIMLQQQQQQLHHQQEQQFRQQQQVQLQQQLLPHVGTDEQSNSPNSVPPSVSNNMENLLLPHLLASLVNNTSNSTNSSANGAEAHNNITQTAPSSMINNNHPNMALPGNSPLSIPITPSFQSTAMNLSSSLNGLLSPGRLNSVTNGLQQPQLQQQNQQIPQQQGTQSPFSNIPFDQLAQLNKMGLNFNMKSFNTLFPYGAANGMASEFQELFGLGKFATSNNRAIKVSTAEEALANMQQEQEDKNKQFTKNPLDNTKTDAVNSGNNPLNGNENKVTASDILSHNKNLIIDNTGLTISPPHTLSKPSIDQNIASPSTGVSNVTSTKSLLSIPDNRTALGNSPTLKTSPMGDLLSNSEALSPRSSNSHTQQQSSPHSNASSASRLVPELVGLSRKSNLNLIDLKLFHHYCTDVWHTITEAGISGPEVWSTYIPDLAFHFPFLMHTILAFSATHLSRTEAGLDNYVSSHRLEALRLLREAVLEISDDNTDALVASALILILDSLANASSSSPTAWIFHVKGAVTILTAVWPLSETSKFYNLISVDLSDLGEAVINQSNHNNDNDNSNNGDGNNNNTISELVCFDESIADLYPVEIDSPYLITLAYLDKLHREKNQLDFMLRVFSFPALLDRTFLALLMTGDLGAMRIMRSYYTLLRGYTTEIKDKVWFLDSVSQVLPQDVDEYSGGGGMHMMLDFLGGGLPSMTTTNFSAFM
Method: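 Universal 'all 10-mer' protein binding microarrays (Agilent AMADID 015681) probed with GST-tagged S. cerevisiae TFs (full-length or DBD) made by in vitro transcription/translation (PURExpress), about 100-200 nM. Bound TF was detected with fluorescent anti-GST. Each ungapped 8-mer (which stands for itself and its reverse complement) is scored by the PBM enrichment score (E-score), a modified Wilcoxon-Mann-Whitney statistic from -0.5 to +0.5, computed with the Universal PBM Analysis Suite. Scale: above 0.35 generally sequence-specific binding.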

| Sequence | PBM E-score |
| --- | --- |
| GGAAGACC | -0.116 |
| CCATATAA | 0.0333 |
| AGCGTGCG | 0.13 |
| CATTTAGC | 0.0683 |
| GTAGAAGA | 0.0356 |
| AATACGAA | 0.419 |
| CCGCCCTA | -0.29 |
| AACAGCTA | -0.146 |
| GAAGAGAC | 0.0183 |
| CACAACCC | -0.0182 |
| CCGATCGG | 0.105 |
| AAATGCTT | -0.178 |
| AATCCGCC | -0.139 |
| CTCCATGC | -0.314 |
| CCCCTTCA | -0.439 |
| ACGTTAGT | 0.0887 |
| ATCCAGAT | -0.0675 |
| TCAGCACA | -0.0232 |
| ACGGATGA | 0.19 |
| GGCTAGGA | -0.21 |
| GTTCGGAA | 0.13 |
| AGTGGCGC | 0.0668 |
| GCGTACCA | 0.273 |
| GGCAGACC | -0.334 |
| GAGTCGGC | -0.00782 |

| Sequence | PBM E-score |
| --- | --- |
| AGGGTGTG | -0.225 |
| CTCTTTCA | -0.0714 |
| CGTCAGAA | -0.0632 |
| ACCTTCGT | 0.32 |
| AACCTGGT | 0.0484 |
| ACTAGCCT | -0.2 |
| ACACCCCT | -0.271 |
| ACCAGGAA | -0.106 |
| CAATCTGA | -0.149 |
| CAGCTCAC | -0.154 |
| CTTTGTCC | -0.044 |
| ACCAACAG | -0.106 |
| ACCCCGCC | 0.0376 |
| CCCGCCCA | 0.0143 |
| CACGGTAC | 0.113 |
| CATTATCC | 0.152 |
| AAAGATGG | -0.286 |
| GCGTTCTA | 0.0647 |
| GAGCATGA | 0.00429 |
| GAAGTATA | 0.203 |
| CCTGCACC | -0.208 |
| CGGGCGTA | 0.0678 |
| CGGTCTAA | 0.0344 |
| TCTTGACA | 0.0086 |
| ACTAAGTG | 0.0267 |

| Sequence | PBM E-score |
| --- | --- |
| GAGGAGCA | 0.0722 |
| ATCGTTTC | 0.365 |
| AAAACTAG | -0.0165 |
| GCAAAGCC | -0.0701 |
| CCAGAACA | 0.117 |
| CGATGTTC | -0.0264 |
| GGTCCGGA | 0.0757 |
| TAATAATA | 0.177 |
| CTATACAA | -0.0134 |
| GAACAAGA | 0.0571 |
| GCGGCGCA | -0.188 |
| ATTGGTGC | 0.0267 |
| GTTCTGAA | -0.013 |
| CGGAGCGC | -0.059 |
| CAGCACCA | -0.276 |
| TAGGCTCA | -0.298 |
| CAGATCCG | 0.0117 |
| AAATAGCC | -0.291 |
| CACAACTG | -0.0984 |
| CTTGGAAC | -0.00278 |
| GGCAGCAC | -0.254 |
| CGAGTCAG | 0.0491 |
| CTATACCA | -0.15 |
| GGACGTAC | 0.126 |
| AGTAGTAT | 0.116 |

| Sequence | PBM E-score |
| --- | --- |
| AACTTGAT | -0.0958 |
| CACTCCAG | 0.0257 |
| ACAGCAGC | -0.0121 |
| CAGCTGAG | -0.192 |
| ACTTACCT | -0.142 |
| CGCCAATA | 0.00375 |
| CGACGGCG | 0.183 |
| AATGCCTA | -0.227 |
| GAAGTAAA | -0.0653 |
| CTAGGCGC | -0.117 |
| TCATGGGA | -0.222 |
| AGTGAGAC | -0.049 |
| TGAATCCA | -0.16 |
| CTGAACCA | -0.235 |
| AAAAAGTC | -0.075 |
| AACGACAT | 0.434 |
| AATCGTGC | 0.221 |
| GTCCAAAA | -0.152 |
| CAACGAGC | 0.336 |
| AAGGCTGC | -0.181 |
| CTTTCAGA | -0.105 |
| TGCAGACA | -0.234 |
| GACCATGA | -0.083 |
| ACCAGACA | 0.0442 |
| CTAGTCGA | -0.115 |

| Sequence | PBM E-score |
| --- | --- |
| AACGACGG | 0.444 |
| CGCGAGTA | 0.249 |
| CCACATTA | -0.0288 |
| ACGGAGGA | 0.151 |
| CCTCGGGC | 0.0916 |
| CATTGTGA | -0.127 |
| AGGCGCTC | -0.0453 |
| GATGACAA | -0.00824 |
| AAACTGTG | -0.214 |
| GGCCTCAC | -0.18 |
| ATATGCGA | 0.35 |
| ATCTGCTG | 0.00714 |
| GCGAACAC | 0.0536 |
| CCTTGCAG | -0.0987 |
| TAACTCAA | -0.152 |
| CTCCCCCA | -0.218 |
| CCAGGGGC | -0.336 |
| CTCACCTC | 0.0368 |
| CTGGAAGC | -0.25 |
| AATGCACC | -0.138 |
| CATAGAGC | -0.272 |
| AAAGCTAT | 0.0112 |
| AATTAACC | 0.0103 |
| ATAAGAAT | 0.059 |
| ATACGACA | 0.469 |

| Sequence | PBM E-score |
| --- | --- |
| ACCAGTAA | -0.0467 |
| ACATTACA | -0.0498 |
| AGCAACGC | 0.0942 |
| AAAGGCCA | -0.183 |
| GATCCATA | 0.0662 |
| ACTGACTC | -0.141 |
| TGCTTGAA | 0.085 |
| ACCCGGTA | 0.155 |
| GAACGCCA | 0.0205 |
| CCTCTTGC | -0.16 |
| GAGGTTCC | 0.083 |
| CTGGGTTA | -0.169 |
| CAAGTGAC | -0.132 |
| CTGAGGTC | -0.129 |
| ACGACCAC | 0.35 |
| AGAGGCGC | -0.0791 |
| ACGCCCCT | -0.107 |
| GGCTAGAA | 0.0305 |
| AGAGTGAA | -0.0771 |
| CGGCGCCC | -0.0635 |
| GAGCTCAA | 0.0703 |
| CGGCTCTC | -0.0678 |
| ATCGGGGA | -0.0445 |
| AGCGGATA | 0.136 |
| CTAACAAG | -0.0999 |

| Sequence | PBM E-score |
| --- | --- |
| ACGTTCCT | 0.302 |
| GGAATACA | -0.045 |
| ACCAAGAG | -0.279 |
| AGGATCCT | 0.134 |
| CTGTACAG | 0.0526 |
| CTTTGGGA | -0.185 |
| CGAAGCTA | 0.207 |
| GCAACAAA | -0.00069 |
| CCGACAGA | 0.224 |
| CGCCTCTA | -0.0424 |
| CCCCACAA | -0.197 |
| ACATTACG | 0.151 |
| ATGCTTGC | -0.111 |
| CCCTGCGC | -0.2 |
| AAACTATG | -0.237 |
| ACGTTAAA | 0.213 |
| ACTGATTA | -0.0946 |
| TCGTGTCA | 0.168 |
| CGTGCTTC | 0.0165 |
| CGTTAAAG | 0.33 |
| CCACGTAG | -0.0926 |
| AAGACCAA | -0.0667 |
